Experimental data reported in PubChem BioAssay AID903 (National Center for Advancing Translational Sciences (NCATS), 2007).
The whole screen tested about 55,000 compounds, of which about 340 (0.62%) were called active. The shares of active, inactive and inconclusive entries below differ from those in the screen. Calls come from the whole dose curve; as a rule, active = well fitted cell-killing curve with a large enough effect; inconclusive = small, poorly fitted or top-dose-only effect; inactive = no such curve, though single readings can be large or run the other way. Where the call is inconclusive, the potency comes from a doubtful curve fit.

Assay: qHTS Screen for Compounds that Selectively Target Cancer Cells with p53 Mutations: Cytotoxicity of p53 Null Cells at the Permissive Temperature; note: nearly all actives have a fitted effect of over 55% in size
Settings: H1299-neo p53 null cells, ATP luminescence, 24 h, 32C; series mostly up to 46.1 µM
How it was run: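 H1299-neo, 600 cells/well; overnight 37C; cpd up to 46 uM, 24 h at 32C; ATPlite luminescence after 20 min RT; normalized to DMSO (0%) and tamoxifen 100 uM (100% kill); Hill-fit AC50.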
Potency is the fitted concentration of half-maximal effect; tags give direction and shape of the fitted curve.

Structure (SMILES) | Potency
Cc1ccccc1Cn1nnc2c(=O)[nH]c(C3CCN(C(=O)c4ccc(F)cc4)CC3)nc21 | inactive
Cc1cc2c(n1-c1ccc(C(=O)NCCc3ccc(Cl)cc3)cc1)CCCC2 | inactive
Cc1nn(Cc2ccc(Cl)cc2Cl)c(C)c1NC(=O)CCl | inactive
CCc1ccc(NC(=O)CSc2ccnc(=O)[nH]2)cc1 | inconclusive: 15.8 µM [cytotoxic, partial curve]
COc1ccc(-c2nc(CNC(=O)NC3CCCCC3)c(C)o2)cc1 | inconclusive: 5.62 µM [cytotoxic, single point]
CCN(CC)c1ncnc2c1cnn2-c1cc(Cl)ccc1C | inactive
CCCCN(C)CC(O)Cn1cc(/C=C/C(=O)c2ccc(Br)cc2)c2ccccc21 (stereo unspecified) | inconclusive: 31.6 µM [cytotoxic, single point]
CCc1ccc(S(=O)(=O)Nc2cccc(-c3ccc(N4CCCCC4)nn3)c2)s1 | active: 15.8 µM
COc1ccc2[nH]c3c(c2c1)CCN(C(=O)CCC1CCCC1)C3c1ccc(F)cc1 (stereo unspecified) | inconclusive: 20 µM [cytotoxic, partial curve, poor fit]
COc1cccc(CSc2nc3ccncc3n2CC(=O)Nc2ccc(OC)c(OC)c2OC)c1 | inconclusive: 15.8 µM [cytotoxic, partial curve]
CCOc1ccc(Nc2nc(-c3cccc(Cl)c3)c3c(n2)-c2ccccc2OC3)cc1 | inconclusive: 31.6 µM [cytotoxic, single point]
COc1ccc(N2CCN(S(=O)(=O)c3ccc(F)c(C(=O)Nc4ccccc4Cl)c3)CC2)cc1 | inconclusive: 20 µM [cytotoxic, single point]
Cc1nn(-c2nc(-c3ccccc3)cc(C(F)(F)F)n2)c(C)c1Cl | inactive
COc1cc(/C=C(\C#N)c2nc3ccc(C)cc3[nH]2)ccc1OCc1ccc(C)cc1 | inconclusive: 15.8 µM [cytotoxic, single point]
COc1ccc(-c2nc3ccccn3c2NCc2ccc3c(c2)OCO3)cc1 | inconclusive: 22.4 µM [cytotoxic, single point]
Cc1ccc(C)c(N2CCN(C(=O)Cn3cnc4onc(-c5ccc(F)cc5)c4c3=O)CC2)c1 | inactive
COc1ccccc1CNC(=O)C(=O)NCC(c1cccs1)S(=O)(=O)c1ccccc1 (stereo unspecified) | inconclusive: 5.62 µM [cytotoxic, single point]
CC(=O)N1CCCc2cc(S(=O)(=O)N3CCC(C(=O)N(C)C4CCCCC4)CC3)ccc21 | inactive
COc1ccc(C(=O)Nc2cccc(OCc3cc(=O)n4c5c(sc4n3)CCCC5)c2)cc1OC | inconclusive: 5.62 µM [cytotoxic, single point]
Cc1nc2c(-c3ccccc3)c(C)nn2c(N)c1-c1ccccc1 | inconclusive: 12.6 µM [cytotoxic, partial curve]
CSc1ccc(/C=N/NC(=O)c2cc(O)cc(O)c2)cc1 | inconclusive: 17.8 µM [cytotoxic, partial curve, poor fit]
Cc1ccc(NS(=O)(=O)c2ccc3nc(-c4ccccc4)[nH]c3c2)cc1Cl | inconclusive: 35.5 µM [cytotoxic, single point]

Structure (SMILES) | Potency
Cc1cccc(C)c1NC(=O)Cn1c(=O)n(Cc2ccc(C(=O)NCc3ccco3)cc2)c(=O)c2sccc21 | inconclusive: 25.1 µM [cytotoxic, single point]
COc1ccc(/C=N/Nc2nncc3ccccc23)cc1 | active: 4.47 µM
N#Cc1c[nH]n2c(NC3CCCC3)c(-c3cccc(Br)c3)nc12 | inactive
CCOc1ccc(NC(=O)c2oc3ccccc3c2NC(=O)C2CCCCC2)cc1 | inconclusive: 5.62 µM [cytotoxic, single point]
CC1CCN(S(=O)(=O)c2ccc3c(c2)N(CC(=O)NCCN(C)C)C(=O)CO3)CC1 | inconclusive: 3.98 µM [cytotoxic, partial curve]
Cc1cnc(NC(=O)CSc2nnc(-c3ccccc3)o2)s1 | inconclusive: 12.6 µM [cytotoxic, partial curve]
CC1CCC(C(C)C)C(OC(=O)Cn2c(-c3ccccc3)[n+](C)c3ccccc32)C1 (stereo unspecified) | inconclusive: 7.08 µM [cytotoxic, partial curve, poor fit]
CCOc1ccc2nc(N3CCC(C(=O)Nc4cc(C)ccc4C)CC3)sc2c1 | inconclusive: 35.5 µM [cytotoxic, partial curve]
COCCCNC(=O)c1ccc2c(c1)nc1n2CCCCC1 | inconclusive: 12.6 µM [cytotoxic, partial curve]
COc1ccc(-c2csc3nc(-c4ccccc4)oc(=O)c23)cc1OC | inconclusive: 25.1 µM [cytotoxic, single point]
CC(C)Oc1ccc(CNC(=O)C2CCN(C(=O)N3CC(C)Oc4ccccc43)CC2)cc1 (stereo unspecified) | inconclusive: 2.51 µM [cytotoxic, full curve, poor fit]
Cc1ccc(-c2nc3ccccc3[nH]2)cc1NC(=O)COc1ccccc1[N+](=O)[O-] | inconclusive: 31.6 µM [cytotoxic, single point]
CC(C)n1c(/C=C/c2ccccc2)nc2ccccc21 | inconclusive: 11.2 µM [cytotoxic, partial curve]
COc1ccc(C(=O)Nc2cccc(-c3cn4ccsc4n3)c2)cc1OC | inconclusive: 10 µM [cytotoxic, partial curve]
CC(C)C(=O)Nc1nnc(CCc2nnc(NC(=O)C(C)C)s2)s1 | inactive
Cc1cccc(S(=O)(=O)Nc2cccc(-c3ccc(N4CCCCC4)nn3)c2)c1 | inconclusive: 12.6 µM [cytotoxic, partial curve]
O=C(NCC(c1ccc2c(c1)OCO2)N1CCOCC1)c1ccccc1 (stereo unspecified) | inconclusive: 5.62 µM [cytotoxic, single point]
Cc1ccc(Cl)cc1NC(=O)Cn1c(=O)cc(C)c2c(C)nn(C)c21 | inactive
Cc1ccc(CSc2c(C)cnc3c2c(=O)n(C)c(=O)n3C)cc1 | inactive
COc1cccc2sc(NC(=O)c3ccc4c(c3)OCCO4)nc12 | active: 7.94 µM
CCS(=O)(=O)Nc1cc(-c2cn3ccc(C)cc3n2)ccc1C | inconclusive: 10 µM [cytotoxic, partial curve]
O=C(NCCCc1ccccc1)C1CC(=O)N(c2ccc3c(c2)OCCO3)C1 (stereo unspecified) | inactive

Structure (SMILES) | Potency
CCc1noc2nc(C)n(CC(=O)O)c(=O)c12 | inconclusive: 6.31 µM [cytotoxic, single point]
CCn1c(=N)c(C(=O)NCc2cccnc2)cc2c(=O)n3cc(C)ccc3nc21 | inactive
CCOc1ccc(CN(CCC#N)C(=S)NC(=O)c2ccccc2)cc1 | inconclusive: 4.47 µM [cytotoxic, partial curve]
O=S(=O)(c1ccc(Br)cc1)c1nnn2c1nc(NC1CCCCCC1)c1sccc12 | inactive
CCc1ccc2[nH]cc(S(=O)(=O)c3ccc(C(C)C)cc3)c(=O)c2c1 | inconclusive: 35.5 µM [cytotoxic, single point]
Cc1cc(C)cc(OCCSc2nc3ccc(NC(=O)c4ccc5c(c4)OCO5)cc3s2)c1 | inactive
CCc1ccc(OCC(=O)Nc2ccc3c(c2)c2ccccc2n3CC)cc1 | inconclusive: 12.6 µM [cytotoxic, partial curve]
COc1ccc(C(=O)Nc2cccc(C(=O)OCc3cc(=O)n4nc(C5CC5)sc4n3)c2)cc1 | inconclusive: 5.62 µM [cytotoxic, single point]
NNC(=O)c1cccc(COc2ccc(Br)cc2)c1 | inconclusive: 25.1 µM [cytotoxic, single point]
O=C1c2ccccc2-c2onc3c(N4CCN(C5CCCCC5)CC4)cc(NCCO)c1c23 | inconclusive: 2.82 µM [cytotoxic, single point]
CCS(=O)(=O)c1ncc(Cl)c(C(=O)N2CCN(c3ccc(OC)cc3)CC2)n1 | inconclusive: 22.4 µM [cytotoxic, single point]
COc1ccc(Cn2cc(S(=O)(=O)c3ccc(C)cc3)c(=O)c3cc(F)ccc32)cc1 | inconclusive: 22.4 µM [cytotoxic, single point]
CCOc1ccc(CCNC(=O)C2CCCN(S(=O)(=O)N(C)c3ccc(F)cc3)C2)cc1 (stereo unspecified) | inactive
COC(=O)c1ccccc1NC(=O)Cn1cnc2sc(C)c(S(=O)(=O)N3CCC(C)CC3)c2c1=O | inactive
Cc1ccc(CNC(=O)Cn2c(SCC(=O)Nc3ccc(F)cc3)nc3ccccc32)cc1 | inconclusive: 12.6 µM [cytotoxic, partial curve]
COc1cc(Cl)c(C)cc1NC(=O)c1cnc(N2CCCCC2)c2ccccc12 | inconclusive: 2.82 µM [cytotoxic, single point]
Cc1cc(C)cc(NC(=O)Cc2noc3ccccc23)c1 | inconclusive: 1.78 µM [cytotoxic, full curve, poor fit]
Cc1ccccc1Nc1c(-c2ccc(N3CCOCC3)cc2)nc2ccc(Br)cn12 | inconclusive: 12.6 µM [cytotoxic, partial curve]
Cc1ccc(S(=O)(=O)Oc2ccc(C)cc2/C=N/N=C2\NC(=O)C(C)S2)cc1 (stereo unspecified) | inconclusive: 28.2 µM [cytotoxic, single point]
CCCCOC(=O)c1ccc(NC(=O)c2sc3nc(C)cc(C)c3c2N)cc1 | inconclusive: 12.6 µM [cytotoxic, partial curve]
CC1CCN(c2ccc(-c3cccc(NS(=O)(=O)c4ccc(F)cc4F)c3)nn2)CC1 | active: 10 µM
COc1ccc(N2CCN(Cc3nc4c(c(=O)[nH]c(=O)n4C)n3Cc3ccccc3C)CC2)cc1 | inconclusive: 3.16 µM [cytotoxic, single point]
